# Assay results taken from PMC4336329 (PLoS ONE, 2015).
# Screen size: about 310,000 compounds; about 14,000 (4.5%) showed an effect of 50% or more. Effects have a minus sign here. This is one part of the list.
# Target: human ether-à-go-go-related gene (hERG) potassium channel (human, UniProt Q12809)
# Assay: primary screen, population patch clamp on CHO cells stably expressing hERG
# 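Further: peak tail current of the secondary pulse compared with the same well before compound.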
# human ether-à-go-go-related gene (hERG) potassium channel, sequence (Q12809 whole entry, looked up): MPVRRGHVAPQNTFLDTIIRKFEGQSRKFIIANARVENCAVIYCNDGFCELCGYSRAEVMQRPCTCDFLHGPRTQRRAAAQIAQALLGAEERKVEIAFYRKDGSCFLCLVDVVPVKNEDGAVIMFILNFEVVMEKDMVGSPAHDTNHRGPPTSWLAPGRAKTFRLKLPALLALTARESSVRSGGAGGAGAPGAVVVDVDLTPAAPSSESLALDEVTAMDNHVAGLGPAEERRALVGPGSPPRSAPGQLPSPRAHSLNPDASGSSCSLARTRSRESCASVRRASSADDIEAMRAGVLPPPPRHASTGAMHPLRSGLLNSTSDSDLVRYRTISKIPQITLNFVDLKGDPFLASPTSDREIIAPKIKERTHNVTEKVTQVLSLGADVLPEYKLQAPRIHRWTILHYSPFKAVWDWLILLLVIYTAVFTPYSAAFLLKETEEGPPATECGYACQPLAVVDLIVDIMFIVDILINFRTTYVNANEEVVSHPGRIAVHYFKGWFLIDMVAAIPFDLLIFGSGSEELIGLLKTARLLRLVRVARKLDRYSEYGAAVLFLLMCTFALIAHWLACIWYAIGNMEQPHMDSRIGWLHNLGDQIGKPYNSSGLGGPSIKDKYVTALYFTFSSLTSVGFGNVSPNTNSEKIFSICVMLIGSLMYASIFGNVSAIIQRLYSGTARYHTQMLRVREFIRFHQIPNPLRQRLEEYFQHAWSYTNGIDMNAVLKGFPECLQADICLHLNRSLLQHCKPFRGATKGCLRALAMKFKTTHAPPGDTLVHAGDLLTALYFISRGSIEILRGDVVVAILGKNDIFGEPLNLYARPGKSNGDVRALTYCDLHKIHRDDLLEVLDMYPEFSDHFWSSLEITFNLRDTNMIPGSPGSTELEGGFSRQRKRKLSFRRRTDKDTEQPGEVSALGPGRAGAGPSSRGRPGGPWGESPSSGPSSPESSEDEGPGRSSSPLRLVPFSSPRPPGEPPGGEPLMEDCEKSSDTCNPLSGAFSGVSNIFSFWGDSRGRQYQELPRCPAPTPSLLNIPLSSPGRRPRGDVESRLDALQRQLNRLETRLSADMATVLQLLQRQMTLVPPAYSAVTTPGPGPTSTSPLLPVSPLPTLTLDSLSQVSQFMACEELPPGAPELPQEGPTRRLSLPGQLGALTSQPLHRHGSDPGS
row,Compound,"hERG current change (%, negative = inhibition) at 10uM"
1,CCOC(=O)N1CCC(NC(=O)c2cc(COc3ccccc3SC)on2)CC1,4.39%
2,Brc1[nH]nc2ccccc12,-33.6%
3,Cc1ccsc1C(C(=O)NCc1ccccc1)N(C(=O)c1csnn1)c1ccccc1 (stereo not shown),18.1%
4,CC(=O)NCCNC(=O)c1oc2ccccc2c1CSc1ncn[nH]1,21.8%
5,Cc1cccc(-n2nnc(C(=O)N3CCc4ccccc4C3)c2N)c1,-12.2%
6,COc1cccc(Cn2cnc3c(NS(=O)(=O)c4cccc(Cl)c4Cl)c(C)c(C)cc32)c1,9.93%
7,CCc1cc(C(=O)Nc2ccccc2N2CCOCC2)sc1C,-3.13%
8,[O-]/C(=C(\C(=S)Nc1cccc2ccccc12)[n+]1ccccc1)c1ccc2c(c1)OCCO2,-18.7%
9,c1ccc(C2c3[nH]c4ccccc4c3CCN2Cc2cccn2-c2cccnc2)nc1 (stereo not shown),-23.7%
10,COc1ccc(C(=O)NC2CC3CCCC(C2)N3Cc2ccccc2)c(OC)c1 (stereo not shown),-26.5%
11,O=C(O)c1ccccc1/C=N/NC(=S)NCc1ccccc1,3.74%
12,O=C(COc1ccc(Cl)cc1)Nc1ccccc1C(=O)NCc1cccnc1,-5.76%
13,COC(=O)c1c(C(=O)OC)c(-c2ccc(C(C)(C)C)cc2)n2c1CS(=O)C2 (stereo not shown),11%
14,CCN1CCN(Cc2cc(OC)c(OC)cc2[N+](=O)[O-])CC1,8.59%
15,Cc1ccccc1OCC(=O)NCCC1=CCCCC1,-18.9%
16,COc1ccc(-c2sc3ccc(OC)cc3c2-c2ccc(OC)c(F)c2)cc1,9.59%
17,NC(=O)CC(NC(=O)c1ccc(Br)cc1)c1ccc(NC2CCCCCC2)c([N+](=O)[O-])c1 (stereo not shown),23.9%
18,Cc1cccc(-c2ncc(CN3CCC(CO)(CCCc4ccccc4)CC3)cn2)c1,-54.1%
19,CC(=O)c1cccc(N(CC(=O)NC2CCCCC2)C(=O)CNC(=O)c2cccs2)c1,3.36%
20,NC(=O)COC(=O)c1cccc(S(=O)(=O)N2CCCc3ccccc32)c1,-4.32%
21,Cc1cccc(N=C2NC(=O)/C(=C/c3cccn3C)S2)c1C,10.5%
22,O=c1c(-c2ccccc2)c(O)nc2ccccn12,9.42%

row,Compound,"hERG current change (%, negative = inhibition) at 10uM"
1,O=C(NCCCN1CCN(c2cccc(Cl)c2)CC1)C1(S(=O)(=O)c2ccc(Cl)cc2)CC1,-71%
2,O=C(COC(=O)C1CC(O)CN1S(=O)(=O)c1ccccc1[N+](=O)[O-])c1ccc[nH]1 (stereo not shown),-7.03%
3,O=C(CN1CCOCC1)N/N=C/c1ccc(-c2ccc(C(=O)O)cc2)o1,-12%
4,COc1ccc(NC(=O)C(c2ccc(C)cc2)N(C)C(=O)CC2NC(=O)NC2=O)cc1 (stereo not shown),-4.95%
5,O=C(NCc1ccc(F)cc1)C1CCCN1C(=O)NCc1ccccc1 (stereo not shown),-25.8%
6,CCOC(=O)CNc1c(-c2ccc(F)cc2)nc2cnccn12,-22.4%
7,CCOC(=O)c1ccc(-n2c(N)c(C(=O)NCC3CCCO3)sc2=S)cc1 (stereo not shown),-8.81%
8,C=CCN1C(=O)C(Cc2cccc(Cl)c2)S/C1=N/N=C/c1ccco1 (stereo not shown),-0.129%
9,COc1ccccc1NC(=O)c1cc(N2C(=O)C3C4CCC(C4)C3C2=O)ccc1Cl (stereo not shown),-48.2%
10,Cc1ccc(S(=O)(=O)NC(=O)Nc2cccc([N+](=O)[O-])c2)cc1,7.24%
11,CCN(CC)c1ccc(N=Cc2c(O)n(CCC3=CCCCC3)c(=O)[nH]c2=O)cc1,15.1%
12,C=C(C(=O)Oc1c(C(C)(C)C)cccc1C(C)(C)C)c1ccccc1,15.4%
13,O=C(NCc1cccnc1)c1cccc(OC2CCN(Cc3ccc(CO)o3)CC2)c1,18.5%
14,Cc1ccc(S(=O)(=O)N2CCN(C(=O)C3CCN(C(=O)c4ccccc4C)CC3)CC2)cc1C,-12.8%
15,O=C(c1cccc(S(=O)(=O)N2CCOCC2)c1)N(Cc1ccco1)Cc1cccs1,-68.5%
16,CN(C)C(C)(C)/C=C/C(O)(c1ccccc1)c1ccccc1,-36.6%
17,O=C(Cn1cnc(S(=O)(=O)N2CCCCC2)c1)N1CCN(c2ccc([N+](=O)[O-])cc2)CC1,-29.3%
18,O=C(NCc1ccccn1)c1cc(-c2ccc(-c3ccccc3)cc2)nc2ccccc12,11.4%
19,Cc1cccc(N(Cc2cc3ccccc3[nH]c2=O)S(=O)(=O)c2ccccc2)c1,2.04%
20,Cc1cc(=O)[nH]c(SCc2nc3ncccn3c2Br)n1,14.6%
21,CCCN1CCC(NC(=O)Nc2ccc([N+](=O)[O-])cc2)CC1,-32.2%
22,C[C@H](NC(=O)OC(C)(C)C)c1nnc(SCC(=O)c2ccc(Cl)cc2)o1,-19.6%

row,Compound,"hERG current change (%, negative = inhibition) at 10uM"
1,Clc1ccc(-c2cc(CSc3cccc(Cl)c3)on2)cc1,-5.98%
2,Cc1nc(N2CCCC2)c2nnn(Cc3ccccc3Cl)c2n1,4.29%
3,O=C(C1CCCN(S(=O)(=O)c2ccccc2)C1)N1CCCCC1 (stereo not shown),7.94%
4,CCCn1c(SCC(=O)N2c3ccccc3Sc3ccccc32)nc2c1c(=O)n(C)c(=O)n2C,-17.7%
5,Cc1ccc(C)c(OC(=O)c2ccncc2)c1,2.46%
6,c1ccc(C2(CNc3ccccn3)CCCC2)cc1,-70.3%
7,Cc1ccc(SC[C@H](Cc2ccccc2)N2CCN(CCc3ccccc3)CCC2=O)cc1,-17.9%
8,O=C(NCC1COc2ccccc2O1)C1CCC(CNc2c(N3CCCCC3)c(=O)c2=O)CC1 (stereo not shown),-5.05%
9,CC(C)Cc1nc(SCC(=O)NCC2CCCO2)c2c(=O)n(C)c(=O)n(C)c2n1 (stereo not shown),-0.141%
10,CCOC(=O)CNC(=S)N(Cc1ccccc1F)C1CCCCC1,-73%
11,CCOc1ccccc1N1CC(C(=O)Nc2cc(Cl)ccc2-n2cncn2)CC1=O (stereo not shown),-10.3%
12,CC(=O)Nc1nnc(CCN2CCCCC2)s1,4.46%
13,COC(=O)c1sc(=S)n(-c2cccc(Cl)c2)c1N,-3.38%
14,O=C(c1cc2c(=O)n3ccccc3nc2s1)N1CCN(c2cccc(Cl)c2)CC1,-5.97%
15,COc1ccc(NS(=O)(=O)c2cccc(NC(=O)C34CCC(CC3)C4)c2)cc1,-4.6%
16,Cc1ccc(N2C(=O)NC(NC(=O)C(C)(C)C)(C(F)(F)F)C2=O)cc1 (stereo not shown),2.01%
17,CCC(=O)Nc1cc2c(cc1C(C)=O)OCCO2,18.1%
18,CC(OC(=O)CCSc1ccccc1)C(=O)Nc1ccc(S(N)(=O)=O)cc1 (stereo not shown),0.483%
19,CC1(C)CC(c2nc(-c3ccc(Br)cc3)cs2)CCS1.Cl (stereo not shown),4.05%
20,COc1ccc(NC(=O)c2cccc(N3C(=O)C4CC=C(C)CC4C3=O)c2)c(OC)c1 (stereo not shown),-6.14%
21,CCOC(=O)N1CCN(C(=O)c2ccccc2NC(=O)c2ccc(OC)cc2)CC1,3.96%
22,Cn1ccnc1SCC(=O)c1cc2ccccc2o1,4.65%

row,Compound,"hERG current change (%, negative = inhibition) at 10uM"
1,Cc1sc2ncnc(N3CCC(C(=O)NNC(=O)c4ccc(Cl)cc4)CC3)c2c1C,-11.2%
2,O=C(CN1C(=O)S/C(=C\c2ccccc2F)C1=O)NC1C=CS(=O)(=O)C1 (stereo not shown),15.9%
3,CC(=O)c1ccc(N(CC(=O)NCCc2ccccc2)C(=O)c2csnn2)cc1,-52.4%
4,O=C(CSc1nc2ccccc2s1)CSc1nc2ccccc2s1,-6.73%
5,O=C(C(=O)N1CCOCC1)c1cn(CC(=O)N2CCCCC2)c2ccccc12,3.83%
6,CC(C)(C)OC(=O)N[C@H](C(=O)OC(C)(C)C)c1ccccc1,16%
7,O=C(NCc1cccnc1)c1cccc(NS(=O)(=O)c2ccc(Br)cc2)c1,-12.1%
8,COCCNC(=O)COc1ccc(Br)cc1Cl,10.4%
9,CC(=O)Nc1ccc(S(=O)(=O)N2CCN(C(=O)N3CCCC3)CC2)cc1,15.4%
10,CC(C)OCCCNC(=O)c1ccccc1NC(=O)C1=CSCCO1,17.4%
11,Cc1c(-c2ccccc2)nc2ccccc2c1C(=O)NCc1cccs1,-21.2%
12,CSCC[C@H](NC(=O)CCn1nnc2ccccc2c1=O)C(=O)O,3.85%
13,CCOC(=O)C1CCC(CN(Cc2ccccc2)S(=O)(=O)c2ccc([N+](=O)[O-])cc2)CC1 (stereo not shown),-10.2%
14,CC(=O)c1ccc(NC(=O)Cc2cccs2)cc1,10.3%
15,CN(CCc1ccccc1)C1CCCN(S(=O)(=O)c2cccc(F)c2)C1 (stereo not shown),-48.1%
16,COC(=O)C1=CN(C)C=C(C(=O)OC)C1c1ccc(O)c(OC)c1,-18%
17,O=C(CN1CCN(Cc2ccccc2Cl)CC1)N/N=C/C=C/c1ccco1,-68.5%
18,O=C(c1cc(C(=O)N2CCOCC2)c2nc3ccccc3n2c1)c1cc(Cl)cc(Cl)c1O,-18.9%
19,O=C(O)C(=O)O.O=[N+]([O-])c1ccccc1S(=O)(=O)N1CCN(CC2CC=CCC2)CC1 (stereo not shown),-38.7%
